According to patent publication US20220175942A1 (published 2022):

Molecular target: EVASIN3
Test: -; previously described evasin

B1: CXCL8_HUMAN (ligand)
chain: not shown
  Kd: 0.43 nM
